Values joined by “and” are separate entries in the source; they are usually repeats but may differ in a detail not shown here. Equal entries are not always repeated. The campaign covered roughly 410,000 compounds. About 5,000 (1.2%) were called active. The shares of active, inactive and inconclusive entries below differ from those in the screen. Calls come from the whole dose curve; as a rule, active = well fitted inhibition curve with a large enough effect; inconclusive = small, poorly fitted or top-dose-only effect; inactive = no such curve, though single readings can be large or run the other way. Potencies beside an inconclusive call are fits to weak or partial responses and may not hold up.
Assay: qHTS for Inhibitors of TGF-b; note: nearly all actives have a fitted effect of over 65% in size
Conditions: HepG2 CAGA-GFP TGF-b/SMAD3 reporter, GFP fluorescence, 18 h, TGF-beta stimulated, 500 pg/mL final; series mostly up to 46.1 µM; activity, negative = inhibition: at the top concentration
How it was run: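 Smad-responsive CAGA-GFP expression was quantified in HEPG2 cells exposed to compounds and 500 pg/mL final TGF-beta for 18 h at 37 degrees C; unstimulated wells defined full inhibition.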
% is set by controls: 0 for no effect and ±100 for the full control effect; potency is the fitted concentration of half-maximal effect; tags give direction and shape of the fitted curve.

| Compound | Potency | activity, negative = inhibition |
| --- | --- | --- |
| COc1ccc(C)c(Cn2c(-c3nonc3N)nc3ccccc32)c1 | inconclusive: 12.6 µM [inhibitor, partial curve, poor fit] | – |
| CCc1cc2c(N3CCCCC3)ncnc2s1 | inconclusive: 3.98 µM [inhibitor, single point] | – |
| COc1ccc(CN(Cc2ccco2)C(=O)c2ccccc2F)cc1 | – | inactive: 0% |
| CC(=O)CN1C(=O)NC(c2ccccc2)(c2ccccc2)C1=O | – | inactive: -12.8% |
| Cc1ccc(N(C)S(=O)(=O)c2c[nH]c3ccc([N+](=O)[O-])cc23)cc1 | inconclusive: 35.5 µM [inhibitor, single point] | – |
| CC(C)CC(=O)Nc1ccc2oc(-c3cccnc3)nc2c1 | – | inactive: 0.826% |
| COc1ccc(C2CC(O)(c3ccccc3)Oc3cc(OC)c(OC)c(OC)c32)cc1 (configuration not stated) | inconclusive: 31.6 µM [inhibitor, single point] | – |
| COc1ccc(C(C(=O)NC2CCCCC2)N(C(=O)c2ccco2)c2ccc(-n3cnnn3)c(C)c2)cc1 (configuration not stated) | – | inactive: -18.9% |
| COc1cccc(-c2cc(C(=O)Nc3ccc(Br)c(C)c3)[nH]n2)c1 | – | inactive: -6.96% |
| CN(C)CCNc1ncnc2ccccc12 | inconclusive: 11.2 µM [inhibitor, partial curve, poor fit] | – |
| C=CCn1c(=N)n(CC(=O)c2ccc(Br)cc2)c2ccccc21 | inconclusive: 35.5 µM [inhibitor, single point] | – |
| O=C(c1ccc(S(=O)(=O)N2CCc3ccccc3C2)cc1)N1CCCCC1 | – | inactive: -20.9% |
| O=C(COC(=O)c1ccc([N+](=O)[O-])o1)Nc1cccc2ccccc12 | inconclusive: 11.2 µM [inhibitor, partial curve] | – |
| Cc1ccc(NC(=O)Nc2nnc(Cc3ccc([N+](=O)[O-])cc3)s2)cc1C | inconclusive: 8.91 µM [inhibitor, partial curve, poor fit] | – |
| O=C1CC(c2nnc(Cc3cccc(Cl)c3)o2)CN1c1ccccc1 (configuration not stated) | – | inactive: -11.4% |
| NC1C=CC=C(C(=O)O)C1 (configuration not stated) | – | inactive: 3.77% |
| CCOc1ccc(-n2c(-c3ccccc3)c[n+]3c2CCC3)cc1 | inconclusive: 8.91 µM [inhibitor, partial curve] | – |
| Cn1nc(C(=O)N2CCN(c3ccc(Cl)cc3)CC2)c2c1-c1ccccc1S(=O)(=O)C2 | inconclusive: 11.2 µM [inhibitor, single point] and inconclusive: 11.2 µM [inhibitor, partial curve, poor fit] | – |
| COc1ccc(-c2cc(C(F)(F)F)nc(NCc3ccc(Cl)cc3)n2)cc1 | inconclusive: 15.8 µM [inhibitor, partial curve, poor fit] | – |
| CCC1CN(C(=O)Nc2cccc(OC)c2)c2ccccc2O1 (configuration not stated) | – | inactive: -26.7% |
| COc1ccc(N(C)S(=O)(=O)c2cccc(C(=O)Nc3ccc(N4CCOCC4)cc3)c2)cc1 | – | inactive: -1.31% |
| COC(=O)c1ccc(OCC(O)CNC2CCCC2)cc1 (configuration not stated) | – | inactive: 0.703% |
| CCOc1ccc(-c2c(C)nn3c(C)c(C(=O)NCCc4ccccc4)cnc23)cc1OCC | – | inactive: 0.36% |

| Compound | Potency | activity, negative = inhibition |
| --- | --- | --- |
| COc1ccc2c(c1)c1c(c(=O)n(-c3ccc(F)c(Cl)c3)c(=O)n1CC(N)=O)n2C | – | inactive: 2.97% |
| Oc1ccc(N=Nc2ccc(Br)cc2)c(O)c1 | inconclusive: 1.78 µM [inhibitor, partial curve] | – |
| CCCN(CC(=O)Nc1ccc(Cl)cc1Cl)C(=O)/C=C/c1cccc([N+](=O)[O-])c1 | inconclusive: 5.62 µM [inhibitor, single point] | – |
| O=C(NNS(=O)(=O)c1ccc([N+](=O)[O-])cc1)c1ccc2ccccc2c1O | inconclusive: 17.8 µM [inhibitor, single point] | – |
| COc1cccc2c1cc1c(=O)n(CC(=O)O)nc(C)n12 | inconclusive: 10 µM [inhibitor, partial curve, poor fit] | – |
| Cc1[nH]c2ccccc2c1N=Nc1ccccc1F | inconclusive: 25.1 µM [inhibitor, single point] | – |
| CCCCC[C@H]1CN(CCCC)C(=O)[C@@H]1CC(=O)NCc1ccc(OC)cc1 | inconclusive: 14.1 µM [inhibitor, single point] and inconclusive: 7.94 µM [inhibitor, partial curve, poor fit] | – |
| O=C(N1CCN(c2ccccc2F)CC1)C1(c2cccs2)CCOCC1 | – | inactive: 5.31% |
| CS(=O)(=O)Nc1ccccc1C(=O)NCCSc1ccc(Cl)cc1 | inconclusive: 35.5 µM [inhibitor, single point] | – |
| CSc1ccc2c(c1)N(CCC1CCCCN1C)c1ccccc1S2 (configuration not stated) | inconclusive: 35.5 µM [inhibitor, single point] | – |
| COc1ccc(-n2nc(C#N)c(Cl)cc2=O)cc1 | active: 15.8 µM | – |
| COCCCNCCOc1ccccc1-c1ccccc1 | – | inactive: 24.9% |
| CCCCCCc1cc2cc(C(=O)Nc3ccc(OC)cc3)c(=O)oc2cc1O | – | inactive: -15.9% |
| CCC1=Nc2cc(C(=O)NCC3CCCO3)ccc2Sc2ccc(Cl)cc21 (configuration not stated) | inconclusive: 14.1 µM [inhibitor, single point] | – |
| CCOc1ccc(CCNC(=O)CS(=O)Cc2nc(-c3ccc(OC)cc3)oc2C)cc1OCC (configuration not stated) | inconclusive: 10 µM [inhibitor, partial curve] | – |
| CCCCN(CCCNC(=O)C1CCN(C(=O)c2cc3sccc3n2C)CC1)Cc1ccccc1 | inconclusive: 35.5 µM [inhibitor, single point] | – |
| Cc1nccn1CCCN1C(=O)CNC1=S | inconclusive: 22.4 µM [inhibitor, single point] | – |
| CCOC(=O)/C=C1\CN(Cc2cc(OC)c(OC)c(OC)c2)S(=O)(=O)c2ccc(C(F)(F)F)cc21 | active: 8.91 µM | – |
| CC(=O)N1C(C(=O)O)Cc2c([nH]c3ccccc23)C1C (configuration not stated) | – | inactive: 0.165% |
| CCOC(=O)C(C)Sc1nc2ccccc2c(=O)n1CC1CCCCC1 (configuration not stated) | inconclusive: 0.891 µM [inhibitor, full curve, poor fit] | – |
| O=C(Nc1cccc(Cl)c1Cl)c1csc([C@H]2C[C@H](O)[C@@H](CO)O2)n1 | – | inactive: 23.7% |
| Cc1nc(N2CCOCC2)c2c(C(=O)N(C)Cc3ccccc3)c(C)oc2n1 | – | inactive: -2.92% |
| Cn1c(-c2ccccc2)cc2c3no[n+]([O-])c3ccc21 | inconclusive: 2.24 µM [inhibitor, full curve, poor fit] | – |

| Compound | Potency | activity, negative = inhibition |
| --- | --- | --- |
| CCCCCCSc1ccc([C@@H]2[C@@H]3C(=O)N(C)C(=O)[C@@H]3[C@]3(C(=O)OC)CCCCN23)cc1 | inconclusive: 35.5 µM [inhibitor, single point] | – |
| O=S(=O)(NCCC1CC1(Cl)Cl)c1ccc(Cl)cc1 (configuration not stated) | inconclusive: 22.4 µM [inhibitor, single point] | – |
| O=C(COc1ccc(F)cc1)N1c2ccccc2CCc2ccccc21 | inconclusive: 10 µM [inhibitor, partial curve, poor fit] | – |
| O=C(c1ccccc1)N1N=C(c2ccccc2)CC1c1ccccc1O (configuration not stated) | inconclusive: 8.91 µM [inhibitor, partial curve, poor fit] | – |
| Cc1ccc(C2=NCCn3c2c2ccc([N+](=O)[O-])cc2[n+]3[O-])cc1 | inconclusive: 20 µM [inhibitor, partial curve, poor fit] | – |
| CCOc1ccc(NC(=O)CN2CCN(CC(=O)Nc3ccccc3OC)CC2)cc1 | – | inactive: -18.4% |
| Cn1cccc1/C=N/n1c(-c2ccc(C(C)(C)C)cc2)n[nH]c1=S | – | inactive: -24.2% |
| NC(N)=N/N=C/c1ccc(OCc2ccc(Cl)cc2)cc1 | inconclusive: 35.5 µM [inhibitor, single point] | – |
| O=C(CN1CCCc2ccccc21)Nc1cccc(S(=O)(=O)N2CCCC2)c1 | inconclusive: 35.5 µM [inhibitor, single point] | – |
| CCCCC(=O)N(C)c1c(CC)nc2c(OCCOc3ccc(F)cc3)cccn12 | inconclusive: 11.2 µM [inhibitor, partial curve, poor fit] | – |
| C[C@@H]1NC(=O)[C@@]2(C)[C@@H](c3ccccc3)[C@H]3COc4ccccc4[C@@H]3N2C1=O | inconclusive: 5.62 µM [inhibitor, single point] | – |
| COC(=O)[C@H]1C[C@@]2(O)CN(S(=O)(=O)c3ccc(C)cc3)C[C@@]2(OC(=O)NCC2CCCCC2)C[C@H]1C(=O)OC | – | inactive: 1.38% |
| Oc1ccc(/C=N/n2c(COc3ccccc3)n[nH]c2=S)c(O)c1 | – | inactive: 1.14% |
| COc1ccc(Cc2noc(COc3ccc(Cl)cc3)n2)cc1 | inconclusive: 14.1 µM [inhibitor, partial curve] | – |
| CCc1cccc(Nc2c([N+](=O)[O-])cc(C(=O)N3CC(=O)Nc4ccccc43)cc2[N+](=O)[O-])c1 | inconclusive: 35.5 µM [inhibitor, single point] | – |
| CCOc1ccc(N(C(C)C(=O)NCCSc2ccc(Cl)cc2)S(C)(=O)=O)cc1 (configuration not stated) | inconclusive: 25.1 µM [inhibitor, single point] | – |
| O=C(CSc1nc2nn(-c3ccccc3)c(=O)c-2c2n1CCCCC2)Nc1ccccc1[N+](=O)[O-] | inconclusive: 25.1 µM [inhibitor, single point] | – |
| Cc1ccc(C(=O)Nc2ccc(S(=O)(=O)N3CCc4ccccc43)cc2)o1 | inconclusive: 22.4 µM [inhibitor, single point] | – |
| CCOc1ccc(NC(=O)CSc2nnc(C)n2CC)cc1 | inconclusive: 35.5 µM [inhibitor, single point] | – |
| CCOC(=O)Cn1c(=O)c2c(nc(N3CCOCC3)n2Cc2ccccc2)n(C)c1=O | – | inactive: -10.5% |
| CC(C)(CC(=O)OCC(=O)Nc1ccccc1F)CC1=NS(=O)(=O)c2ccccc2N1 | inconclusive: 22.4 µM [inhibitor, partial curve, poor fit] and inconclusive: 17.8 µM [inhibitor, single point] | – |

Source: PubChem BioAssay AID588855 (National Center for Advancing Translational Sciences (NCATS), 2011)
